Screen size: about 370,000 compounds; about 150 (0.041%) were called active. The inconclusive results got no clear call from the source; some entries with a clear call stand among them for comparison. Calls follow the shape of the dose curve; as a rule, active = well fitted inhibition curve with a large enough effect; inconclusive = small, poorly fitted or top-dose-only effect; inactive = flat fitted curve, though single readings scatter. No potency is given beside an inconclusive call; the fits are too rough.
Each compound was assayed against Beta-lactamase (Escherichia coli (strain K12)) (UniProt P00811) (assay: qHTS Inhibitors of AmpC Beta-Lactamase (assay with detergent)). Conditions: AmpC hydrolysis of nitrocefin, absorbance 480 nm, 0.01% Triton; series mostly up to 114 µM.
UniProt P00811, sequence (P00811 whole entry, looked up): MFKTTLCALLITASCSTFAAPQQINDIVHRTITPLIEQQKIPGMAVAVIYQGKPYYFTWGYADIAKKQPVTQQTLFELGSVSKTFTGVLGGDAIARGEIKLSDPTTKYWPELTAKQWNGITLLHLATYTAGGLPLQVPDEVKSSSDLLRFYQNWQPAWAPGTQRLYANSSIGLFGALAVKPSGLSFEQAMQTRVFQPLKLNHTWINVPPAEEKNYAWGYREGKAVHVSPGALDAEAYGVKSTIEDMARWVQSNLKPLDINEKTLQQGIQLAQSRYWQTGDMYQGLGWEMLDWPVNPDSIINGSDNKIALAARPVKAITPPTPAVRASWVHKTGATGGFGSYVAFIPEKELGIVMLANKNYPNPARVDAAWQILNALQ
Summary of the method: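 AmpC (5.3 nM in the dispensed reagent) in 20 mM phosphate pH 7.0 with 0.01% (detergent screen) or 0.0001% Triton X-100 was preincubated with compounds for 15 min at room temperature. Nitrocefin was then added from an 800 uM solution, and hydrolysis was followed at 480 nm.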
Also: nearly all actives have a fitted effect of over 25% in size.
Potency is read from the fitted curve at half-maximal effect; tags tell the direction and shape of the fitted curve.

Row | SMILES | Potency
1 | COc1ccc(NC(=O)NCCCN2CCc3ccccc3C2)cc1 | inconclusive [inhibitor, full curve, poor fit]
2 | Cc1ccc(C)c(S(=O)(=O)N2CCN(C(=O)CCC(=O)c3cc(C)sc3C)CC2)c1 | inconclusive [inhibitor, partial curve]
3 | Cc1ccccc1NC(=O)c1cccc2nc3ccccc3nc12 | inconclusive [inhibitor, full curve, poor fit]
4 | CCCn1c(=O)c2ccccc2n2c(SCC(N)=O)nnc12 | inconclusive [inhibitor, full curve, poor fit]
5 | O=C(CCCN1C(=O)/C(=C/c2ccccc2Cl)SC1=S)NNC(=O)c1cccnc1 | inactive
6 | O=C(NC(=S)N1CCN(c2ccc(F)cc2)CC1)c1cccs1 | inactive
7 | Cc1ccc(S(=O)(=O)N(CC(=O)Nc2cccc(N(C)S(C)(=O)=O)c2)c2ccc(Cl)c(Cl)c2)cc1 | inconclusive [inhibitor, full curve]
8 | Cc1cccc(NC(=O)Cn2c(=O)n(Cc3ccccc3)c(=O)c3c(C)c(C)sc32)c1 | inconclusive [inhibitor, full curve, poor fit]
9 | NS(=O)(=O)c1cccc(NC(=O)C(Cc2ccccc2)NC(=O)c2ccccc2)c1 (centres undefined) | inconclusive [inhibitor, full curve, poor fit]
10 | C/C(=N/NS(=O)(=O)c1ccc(Cl)cc1)c1cccc(NC(=O)c2ccc(Cl)cc2Cl)c1 | inactive
11 | C=CCN(C(=O)c1csnn1)C(C(=O)NCc1ccc(F)cc1)c1sccc1C (centres undefined) | inconclusive [inhibitor, single point]
12 | C=Cc1cccc(NC(=O)COc2ccccc2)c1 | inconclusive [inhibitor, partial curve]
13 | CC1CCN(S(=O)(=O)c2ccc(NC(=O)Cn3nnc(-c4ccccc4F)n3)cc2)CC1 | inconclusive [inhibitor, full curve, poor fit]
14 | O=C(N/N=C/c1ccccc1)c1[nH]ncc1Br | inconclusive [inhibitor, full curve, poor fit]
15 | CC(C)C(=O)NC(=S)Nc1sc2c(c1C(N)=O)CCCC2 | inconclusive [inhibitor, partial curve, poor fit]
16 | C[C@H](O)c1[nH]c2cc(F)ccc2c1[C@H](C)O | inconclusive [inhibitor, full curve, poor fit]
17 | CC(=O)Nn1cnc2c(c1=O)C1(CCCCC1)Cc1ccccc1-2 | inactive
18 | CC(C)[C@H](NC(=O)N1c2ccccc2NC(=O)[C@@H]1C(C)C)C(=O)N1CCC[C@H]1C(=O)O | inconclusive [inhibitor, partial curve, poor fit]
19 | C/C(CC(=O)Nc1ccc(C)c(Cl)c1)=N\NC(=O)c1ccncc1 | inconclusive [inhibitor, full curve, poor fit]
20 | O=C(CN1C(=O)NC2(CCCC2)C1=O)N1CCN(c2ccccc2Cl)CC1 | inconclusive [inhibitor, partial curve]
21 | CC(=O)c1ccc(N2C(=O)[C@@H]3C(C(=O)CCN4C(=O)c5ccccc5C4=O)=NN[C@@H]3C2=O)cc1 | inactive
22 | COc1ccc(CNC(=O)COC(=O)c2ccccn2)cc1 | inconclusive [inhibitor, full curve, poor fit]

Row | SMILES | Potency
23 | COc1ccc(-c2cc(-c3ccccc3)nc(Cl)n2)cc1OC | inconclusive [inhibitor, full curve, poor fit]
24 | O=C(CSc1nc2ccccc2s1)NCCOc1ccc(Cl)cc1 | inconclusive [inhibitor, full curve, poor fit]
25 | CCC(CC)C(=O)Nc1ccc(C(=O)c2ccccc2)cc1 | inconclusive [inhibitor, partial curve]
26 | COc1ccc(C2Nc3cccc4cccc(c34)N2)cc1Br | inactive
27 | ClCCCc1cn(C[C@H]2CC[C@@H]([C@@H]3CC[C@H](Cn4cc(CCCCl)nn4)O3)O2)nn1 | inconclusive [inhibitor, partial curve, poor fit]
28 | CC/C(CC(=O)C(F)(F)F)=N\NC(=O)/C(C#N)=C/N(C)C | inactive
29 | O=C(COc1coc(CN2CCN(c3ccccc3F)CC2)cc1=O)N1CCc2ccccc21 | inconclusive [inhibitor, partial curve, poor fit]
30 | Cc1sc(NC(=O)c2ccco2)nc1-c1ccc2c(c1)CC(C)N2C(=O)C1CC1 (centres undefined) | inactive
31 | C=CCNC(=O)/C(=C/c1ccccc1OCC)NC(=O)c1ccccc1 | inconclusive [inhibitor, full curve, poor fit]
32 | CC(=O)c1c(-c2ccc(C)cc2)nc2c3ccccc3ccn12 | inconclusive [inhibitor, full curve, poor fit]
33 | O=C(c1ccc(OCC2CCCO2)cc1)N1CCc2ccccc2C1 (centres undefined) | inconclusive [inhibitor, partial curve]
34 | Nc1c(C(=O)NCc2cccs2)nnn1CC(=O)Nc1cccc(Cl)c1 | inconclusive [inhibitor, single point]
35 | c1ccc2c(-c3nnc4n3CCCCC4)c[nH]c2c1 | inconclusive [inhibitor, partial curve, poor fit]
36 | COc1ccc(C(=O)N2CCOCC2)cc1S(=O)(=O)N1CCC(C)CC1 | inconclusive [inhibitor, full curve, poor fit]
37 | CCCc1cc(=O)[nH]c2nnc(SCC(=O)Nc3ccc(C(C)=O)cc3)n12 | inactive
38 | CCOc1ccc(NC(=O)c2ccccn2)cc1 | inactive
39 | Cc1cc(C)n(C(=O)CCNC(=O)c2ccccc2Cl)n1 | inconclusive [inhibitor, partial curve]
40 | C/C(=N\NC1=NCCN1)c1ccc(Cl)cc1 | inactive
41 | O=C(c1cc(COc2ccc(F)c(F)c2)on1)N1CCSCC1 | inactive
42 | Cc1c(O)c2cccnc2[nH]c1=O | inconclusive [inhibitor, partial curve, poor fit]
43 | CNc1ncc(C(=O)C(C)(C)C)s1 | inconclusive [inhibitor, full curve]
44 | Cc1cccc(N2C(=O)N3[C@@H]4c5ccccc5OC[C@@H]4[C@@H](c4ccccc4)[C@@]3(C)C2=O)c1 | inactive

Row | SMILES | Potency
45 | COC(=O)COc1ccc(S(=O)(=O)Nc2ccc(NC(C)=O)cc2)cc1 | inconclusive [inhibitor, full curve, poor fit]
46 | CC1CCCCN1CCCNc1ccc(C(CC(N)=O)NC(=O)c2ccccc2)cc1[N+](=O)[O-] (centres undefined) | inconclusive [inhibitor, full curve, poor fit]
47 | O=C(NC1CCCCCCC1)c1c(O)c2ccccc2[nH]c1=O | inactive
48 | O=C(/C=C/c1ccc(S(=O)(=O)N2CCOCC2)cc1)NC(=S)NCCCn1ccnc1 | inactive
49 | Cc1ncc(C[n+]2csc(CCOC(=O)CC34CC5CC(CC(C5)C3)C4)c2C)c(N)n1 | inconclusive [inhibitor, partial curve, poor fit]
50 | CCn1c(-c2ccc(N(C)C)cc2)nc2ccccc21 | inactive
51 | CCn1c(=O)cc(OCC(=O)NCCCN2CCC(C)CC2)c2ccccc21 | inconclusive [inhibitor, full curve, poor fit]
52 | COc1ccccc1Cn1c(=O)c2ccccc2n2c(SCC(=O)N3CCCCC3)nnc12 | inconclusive [inhibitor, single point]
53 | O=C(CN1C(=O)NC2(CCCC2)C1=O)Nc1cc(Cl)ccc1N1CCOCC1 | inconclusive [inhibitor, partial curve]
54 | CC(=O)NS(=O)(=O)c1ccc(NC(=O)c2cc3c(=O)n4ccccc4nc3s2)cc1 | inconclusive [inhibitor, full curve, poor fit]
55 | Cc1ccc(S(=O)(=O)c2nc(S(=O)(=O)c3ccccc3)sc2N2CCN(C)CC2)cc1 | inconclusive [inhibitor, partial curve, poor fit]
56 | COc1cc2c(cc1NC(=O)CSc1ccc(Cl)cc1)oc1ccccc12 | inactive
57 | Cc1ccccc1N1CCN(C2CCCN(C(=O)CCN3CCCCO3)C2)CC1 (centres undefined) | inconclusive [inhibitor, full curve]
58 | O=C(O)CNC(=O)c1ccc(N2CCOCC2)cc1[N+](=O)[O-] | inconclusive [inhibitor, full curve, poor fit]
59 | O=c1ccnc(SCc2ccccc2Cl)[nH]1 | inconclusive [inhibitor, full curve, poor fit]
60 | Cc1ccc(N2CC(NC(=O)C(=O)c3c[nH]c4ccccc34)CC2=O)cc1C (centres undefined) | inconclusive [inhibitor, partial curve, poor fit]
61 | COCCn1c(=O)[nH]c(=O)c2c1nc(-c1cc(Br)c3c(c1)OCO3)n2Cc1ccccc1 | inconclusive [inhibitor, full curve, poor fit]
62 | Cc1nn(C)c(C)c1S(=O)(=O)N1CCCC(C(=O)N2CCN(c3ccccc3)CC2)C1 (centres undefined) | inconclusive [inhibitor, partial curve, poor fit]
63 | COc1ccc(S(=O)(=O)NC2CC(=O)N(c3ccc(C)c(C)c3)C2)cc1 (centres undefined) | inconclusive [inhibitor, full curve, poor fit]
64 | CCOc1cc(S(=O)(=O)N2CCCCC2)ccc1Cl | inconclusive [inhibitor, full curve, poor fit]

Source: PubChem BioAssay AID485294 (National Center for Advancing Translational Sciences (NCATS), 2010)
